The source of these data is the antibiotic and cytotoxicity screens of Wong et al. (2023).

The subject of test [1] is HSkMC (human skeletal muscle cells). As to the kind of experiment: cytotoxicity call (relative viability < 0.9). The conditions noted are these: 10 µM.
The test system of test [2] is HepG2. As to the kind of experiment: cytotoxicity call (relative viability < 0.9). The conditions noted are these: 10 µM.
Test [3] has as its system S. aureus RN4220. As to the kind of experiment: growth inhibition call (relative growth <= 0.2). The conditions noted are these: 50 µM.

This is one part of the list.

Consider `CC(C)NC(=O)N(C)C[C@H]1OCc2cn(nn2)CCCC(=O)N([C@@H](C)CO)C[C@H]1C`, for which the cytotoxicity call in test [1] and in test [2] was “inactive” in each case. The growth inhibition call in test [3] is “inactive”.
As to `COc1cccc(-c2cnc3c(c2)C(=O)N([C@H](C)CO)C[C@H](C)[C@H](CN(C)C(=O)Nc2cccc4ccccc24)O3)c1`, the cytotoxicity call in test [1] and in test [2] was “inactive” throughout. The growth inhibition call in test [3] is “inactive”.
As for `CNC(=O)c1c(N)cnn1C`, the cytotoxicity call in test [1] and in test [2] was “inactive” each time. Moreover, in test [3], the growth inhibition call was “inactive”.
As to `Cc1noc(C)c1S(=O)(=O)Nc1ccc2c(c1)C(=O)N([C@H](C)CO)C[C@H](C)[C@@H](CN(C)Cc1ccc(-c3ccccc3)cc1)O2`, the cytotoxicity call in test [1] and in test [2] was “inactive” in each case. Further, in test [3], the growth inhibition call is “inactive”.
As to `COc1cccc(C#Cc2ccc3c(c2)O[C@@H](CN(C)C(=O)CN2CCOCC2)[C@H](C)CN([C@@H](C)CO)S3(=O)=O)c1`, the cytotoxicity call in test [1] and in test [2] was “inactive” in each case. Also, the growth inhibition call in test [3] is “inactive”.
Consider `COCCNC(=O)C[C@H]1CC[C@@H]2[C@@H](COc3ccc(NC(=O)Nc4cccc(F)c4)cc3C(=O)N2C)O1`, for which the cytotoxicity call in test [1] and in test [2] was “inactive” in each case. Besides, in test [3], the growth inhibition call was “inactive”.
For `C[C@H](O)C#Cc1ccc2c(c1)O[C@H](CN(C)C(=O)Cc1ccccn1)[C@H](C)CN([C@@H](C)CO)S2(=O)=O`, the cytotoxicity call in test [1] and in test [2] was “inactive” each time. Further, the growth inhibition call in test [3] was “inactive”.
Consider `C=CCC[C@@H](Cc1ccc(F)cc1)C(=O)O[C@H](CNC(=O)[C@@H](CC=C)CC(=O)N(CCO)Cc1ccccc1)c1ccccc1`, for which the cytotoxicity call in test [1] was “active”. In test [2], the cytotoxicity call was “inactive”. In test [3], the growth inhibition call was “inactive”.
For `COCC#Cc1cnc2c(c1)C(=O)N([C@H](C)CO)C[C@@H](C)[C@H](CN(C)C(=O)c1ccc3c(c1)OCO3)O2`, the cytotoxicity call in test [1] and in test [2] was “inactive” each time. In addition, in test [3], the growth inhibition call was “inactive”.
As for `C=CCC[C@@H](Cc1ccc(F)cc1)C(=O)OC[C@@H](Cc1c[nH]c2ccccc12)NC(=O)[C@@H](CC=C)CC(=O)N[C@H](CO)Cc1ccccc1`, the cytotoxicity call in test [1] and in test [2] was “inactive” in each case. For the same compound, in test [3], the growth inhibition call was “inactive”.
Regarding `CO[C@@H](CN(C)C(=O)c1ccc2c(c1)OCO2)[C@H](C)CN([C@H](C)CO)S(=O)(=O)c1ccc(C)cc1`, the cytotoxicity call in test [1] and in test [2] was “inactive” throughout. Further, the growth inhibition call in test [3] is “inactive”.
Regarding `Cc1ccc(S(=O)(=O)Nc2ccc3c(c2)C(=O)N([C@H](C)CO)C[C@@H](C)[C@H](CN(C)C(=O)C2CCCCC2)OCCCC[C@H](C)O3)cc1`, the cytotoxicity call in test [1] and in test [2] was “inactive” each time. Moreover, the growth inhibition call in test [3] was “inactive”.
On to `C[C@@H]1CN([C@@H](C)CO)C(=O)c2cc(NC(=O)Nc3ccc4c(c3)OCO4)ccc2O[C@@H]1CN(C)S(=O)(=O)c1cn(C)cn1`, for which the cytotoxicity call in test [1] and in test [2] was “inactive” each time. Besides, in test [3], the growth inhibition call was “inactive”.
On to `CC(C)CC#Cc1cnc2c(c1)C(=O)N([C@H](C)CO)C[C@H](C)[C@H](CN(C)C(=O)CCN1CCCCC1)O2`, for which the cytotoxicity call in test [1] and in test [2] was “inactive” throughout. Also, the growth inhibition call in test [3] is “inactive”.
Regarding `COc1ccc(S(=O)(=O)N[C@@H]2CC[C@H](CCNC(=O)CN3CCOCC3)O[C@@H]2CO)cc1`, the cytotoxicity call in test [1] and in test [2] was “inactive” each time. For the same compound, in test [3], the growth inhibition call was “inactive”.
As to `C[C@@H]1CCCCO[C@@H](CN(C)S(=O)(=O)c2ccc(Cl)cc2)[C@H](C)CN([C@@H](C)CO)C(=O)c2cc(NC(=O)C3CCCCC3)ccc2O1`, the cytotoxicity call in test [1] and in test [2] was “inactive” in each case. The growth inhibition call in test [3] is “inactive”.
Regarding `C1CCN2CC3CC(CN4CCCCC34)C2C1.O=S(=O)(O)O` (stereo not given), the cytotoxicity call in test [1] and in test [2] was “inactive” each time. In addition, the growth inhibition call in test [3] was “inactive”.
Take `Nc1nc(=O)n([C@H]2C[C@H](O)[C@@H](CO)O2)cc1O`: the cytotoxicity call in test [1] and in test [2] was “inactive” each time. Further, the growth inhibition call in test [3] is “inactive”.
As for `COc1ccc(NC(=O)Nc2ccc3c(c2)CC(=O)N([C@H](C)CO)C[C@@H](C)[C@H](CN(C)Cc2ccc(Oc4ccccc4)cc2)O3)cc1`, in test [1], the cytotoxicity call was “inactive”. Also, in test [2], the cytotoxicity call is “active”. For the same compound, the growth inhibition call in test [3] is “inactive”.
`C[C@H]1CN([C@@H](C)CO)C(=O)CCCn2nncc2CO[C@@H]1CN(C)C(=O)Nc1ccc(N2CCCCC2)cc1`: the cytotoxicity call in test [1] and in test [2] was “inactive” throughout. Further, the growth inhibition call in test [3] was “inactive”.
As to `C[C@H]1CN([C@@H](C)CO)C(=O)Cc2cc(NS(=O)(=O)c3cn(C)cn3)ccc2O[C@@H]1CN(C)Cc1ccc2c(c1)OCO2`, the cytotoxicity call in test [1] and in test [2] was “inactive” in each case. Moreover, in test [3], the growth inhibition call was “inactive”.
On to `Cc1cc(C(=O)Nc2cccc3c2O[C@@H](CN(C)S(=O)(=O)c2ccc(Cl)cc2)[C@@H](C)CN([C@H](C)CO)C3=O)n(C)n1`, for which the cytotoxicity call in test [1] and in test [2] was “inactive” in each case. Further, the growth inhibition call in test [3] was “inactive”.
In the case of `COc1ccc(-c2coc3cc(OC)ccc3c2=O)cc1`, the cytotoxicity call in test [1] and in test [2] was “inactive” in each case. The growth inhibition call in test [3] was “inactive”.
As to `C[C@H](CO)N1C[C@H](C)[C@@H](CN(C)C(=O)Nc2ccc(F)cc2)OCCCC[C@H](C)Oc2ccc(NC(=O)Nc3ccc4c(c3)OCO4)cc2C1=O`, the cytotoxicity call in test [1] and in test [2] was “inactive” in each case. The growth inhibition call in test [3] was “inactive”.
Regarding `COc1ccc(NC(=O)N(C)C[C@H]2OCCCC[C@@H](C)Oc3ccc(NC(=O)Nc4ccc5c(c4)OCO5)cc3C(=O)N([C@@H](C)CO)C[C@H]2C)cc1`, the cytotoxicity call in test [1] and in test [2] was “inactive” each time. For the same compound, the growth inhibition call in test [3] is “inactive”.
